# Assay results reported in paper PMC6919601, “Identification of Plasmodium dipeptidyl aminopeptidase allosteric inhibitors by high throughput screening” (PLoS ONE, 2019).
# Hit rate of the full screen: of about 110,000 compounds, about 230 (0.21%) showed an effect of 50% or more. The list shows a part of the results.
# Target: DPAP1 (Plasmodium falciparum, UniProt Q8IIJ9)
# Assay: primary screen, percent inhibition; read by cleavage of a fluorogenic dipeptide substrate; higher = more effect of the substance
# Parameters: species or system P. falciparum D10 trophozoite lysates; single well
# 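Note: 30 min substrate incubation versus DMSO and 10 µM JCP410 controls.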
# Sequence of DPAP1 (Q8IIJ9 whole entry, looked up): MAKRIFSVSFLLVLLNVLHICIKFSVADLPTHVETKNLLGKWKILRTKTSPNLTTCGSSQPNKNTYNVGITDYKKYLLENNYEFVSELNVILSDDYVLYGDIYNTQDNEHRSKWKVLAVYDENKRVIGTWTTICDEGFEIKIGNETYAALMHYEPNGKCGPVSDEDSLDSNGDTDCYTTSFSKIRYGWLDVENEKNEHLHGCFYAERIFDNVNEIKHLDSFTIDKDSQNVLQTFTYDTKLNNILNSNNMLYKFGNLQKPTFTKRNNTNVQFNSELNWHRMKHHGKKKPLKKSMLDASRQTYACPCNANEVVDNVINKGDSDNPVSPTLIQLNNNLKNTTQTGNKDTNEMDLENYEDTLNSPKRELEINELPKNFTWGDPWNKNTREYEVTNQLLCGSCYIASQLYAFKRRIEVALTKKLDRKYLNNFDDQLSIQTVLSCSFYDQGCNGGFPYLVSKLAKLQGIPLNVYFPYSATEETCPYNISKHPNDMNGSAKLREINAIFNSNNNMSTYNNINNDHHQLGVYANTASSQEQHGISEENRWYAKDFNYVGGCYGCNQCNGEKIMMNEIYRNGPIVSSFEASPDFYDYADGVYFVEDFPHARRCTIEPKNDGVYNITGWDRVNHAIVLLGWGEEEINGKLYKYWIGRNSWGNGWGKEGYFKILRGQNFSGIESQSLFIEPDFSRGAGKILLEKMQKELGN
row,SMILES,% Inhibition @ 10 uM
1,COCCN1C(=O)/C(=C\c2cc(C)n(-c3ccc(Cl)c(Cl)c3)c2C)C(C(=O)OC)=C1C,12.3%
2,CC1=C(c2ccc(Cl)cc2)S(=O)(=O)N=C1N1CCC(C(=O)NCCc2cccs2)CC1,1.63%
3,Cc1ccc(-c2noc(CCCC(=O)NC(C)C)n2)cc1,2.21%
4,CC1(C)[C@H]2CC=C(CN3CCN(C/C=C/c4ccccc4)CC3)[C@@H]1C2,1.74%
5,COc1ccc(OCC(=O)Nc2ccc(S(=O)(=O)N3CCCCCC3)cc2)cc1,-9.24%
6,COc1ccc(N2CCN(S(=O)(=O)c3ccc(F)c(Cl)c3)CC2)cc1,-4.86%
7,Cn1c(-c2ccccc2)cnc1NCc1cccc(O)c1,-1.11%
8,CC(C)CN1C(=O)C2C3CC4C5(C)CCCC(C)(C(=O)O)C5CCC4(C=C3C(C)C)C2C1=O (stereo not shown),7.63%
9,Cc1ccc(NC(=O)c2ccn(C)n2)cc1S(=O)(=O)N1CCOCC1,-15.9%
10,Cn1c(=O)c2c(ncn2Cc2ccccc2F)n(C)c1=O,-2.3%
11,Cn1cc(CNC(=O)c2sc3cc(Cl)ccc3c2Cl)cn1,-0.522%
12,Brc1ccccc1CN1CCN(c2ncccn2)CC1,-1.04%
13,COc1ccc(C=O)cc1Cn1c(=O)n(CCC(=O)NCc2ccco2)c(=O)c2sccc21,-3.77%
14,O=[N+]([O-])c1ccc(N2CCN(C3CCC(c4ccccc4)CC3)CC2)cc1 (stereo not shown),3.19%
15,Cc1cccc(NC(=O)CCc2nnc3ccc(N4CCC(C)CC4)nn23)n1,-4.93%
16,CCCc1cc(N2CCOCC2)n2c(nc3ccccc32)c1C#N,-0.85%
17,COc1ccc(C(=O)NC(C)c2cc3c(cc2Cl)OCCCO3)cc1 (stereo not shown),-1.28%
18,CC1CCN(Cc2ccc(-c3nn[nH]n3)cc2)CC1,-0.551%
19,COc1ccc(NC(=O)c2ccc([N+](=O)[O-])cc2)c(OC)c1,-6.99%
20,Cc1cc(C)n2c(SC3CCCCC3NS(=O)(=O)c3ccccc3)nnc2n1 (stereo not shown),-3.64%
21,CCC(C(=O)N1CCc2ccccc2C1)n1nc(C)n2c(cc3sccc32)c1=O (stereo not shown),1.8%
22,Cc1ccccc1C(=O)Nc1sc(Cc2ccccc2)c(C)c1C(N)=O,15.8%
23,Cc1ccc(-c2nnn3c2nc(NC(C)c2ccccc2)c2ccccc23)cc1 (stereo not shown),-2.92%
24,Cc1ccc(C2=C/C(=C/c3ccc4c(c3)OCO4)C(=O)O2)cc1,-1.6%
25,Cc1ccccc1N1C(=O)C2CC=CCC2C1=O (stereo not shown),-3.39%

row,SMILES,% Inhibition @ 10 uM
1,Cc1c(C(=O)Nc2ccccc2C(F)(F)F)cccc1[N+](=O)[O-],1.38%
2,COc1ccc(N(CC(=O)Nc2ccc(C)c(C)c2)S(=O)(=O)c2ccccc2)cc1,-4.13%
3,CS(=O)(=O)c1ccc(-c2nnn(CC(=O)O)n2)cc1,3.72%
4,COc1ccc2cc3cc(C(=O)N4CCCCC4C)oc3nc2c1 (stereo not shown),-1.54%
5,Cc1nc2scc(C)n2c(=O)c1S(=O)(=O)NCc1ccc(F)cc1,-2.41%
6,COc1cccc(Cn2c(NCC(C)C)nc3c2c(=O)n(C)c(=O)n3C)c1,-7.08%
7,Cn1c(=O)c2c(nc(N3CCc4ccccc4C3)n2CCSc2ncccn2)n(C)c1=O,2.41%
8,COc1ccc(CN2CCN(S(=O)(=O)c3ccc(Cl)cc3)CC2)cc1,3.49%
9,COP(=O)(OC)C(Nc1ccc(Cl)cc1)c1ccc(Br)cc1 (stereo not shown),-2.51%
10,COc1cc2c(cc1OC)C(C)N(C(=O)c1cc(S(=O)(=O)N3CCCC3)cn1C)CC2 (stereo not shown),-2.79%
11,Cc1[nH]c2ccccc2c1CCNC(=O)c1cc(F)c(F)cc1Cl,0.161%
12,CCOC(=O)N1CCN(C(=O)c2ccc3c(c2)sc2nc(-c4cccc(OC)c4)cn23)CC1,11.8%
13,COc1cccc(-c2nnc3n2N=C(c2ccc(O)c(O)c2)CS3)c1,-1.52%
14,Oc1nc(Cc2ccccc2)nc2c1C1(CCCC1)Cc1ccccc1-2,-7.19%
15,O=C1CC(N2CCN(C/C=C/c3ccccc3)CC2)C(=O)N1c1ccccc1 (stereo not shown),8.67%
16,Cc1ccc(C)c(N2C(=O)C3C4C=CC(O4)C3C2=O)c1 (stereo not shown),-2.56%
17,CCN(Cc1ccccc1)C(=O)c1cc(-c2ccc(C)c(C)c2)[nH]n1,-2.18%
18,CCOC(=O)c1c(-c2ccccc2)csc1NC(=O)Cc1coc2ccc(OC)cc12,6.7%
19,N#Cc1c(NC(=S)NC(=O)c2ccco2)sc2c1CCC2,3.32%
20,Cc1cc(C)nc(NS(=O)(=O)c2ccc(NC(=O)COc3ccc(Cl)cc3Cl)cc2)n1,0.188%
21,CCOC(=O)Nc1nnc(-c2ccc(Br)cc2)s1,-0.597%
22,COc1cc2c(cc1OC)C(c1cccc(F)c1)N(C(C)=O)CC2 (stereo not shown),-2.32%
23,CC(C)(C)c1ccc(C(=O)NCCc2csc3nc(-c4ccccc4)nn23)cc1,10.8%
24,CCNC(=O)/C(C#N)=C/c1c(Oc2ccc(CC)cc2)nc2c(C)cccn2c1=O,5.21%
